According to US9044420B2, “Immunogenic compositions and methods of using the compositions for inducing humoral and cellular immune responses” (IMMUNE DESIGN CORP., priority 2011, dated 2015):

Test system: Antigen-specific CD8 T cells (SIV-Gag AL11)
Assay: Antigen-specific CD8 T cells by ICS, vector prime and synthetic long peptide boost (Example 11)
Assay type: in vivo, C57BL/6 mice
Settings: prime with lentivector encoding full length immunogen, boost d21 with fragment plus GLA-SE, compared to boost with the same lentivector

How did the “CD8 T cell response after boost” value turn out when “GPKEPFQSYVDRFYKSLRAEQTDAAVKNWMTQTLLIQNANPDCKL (GLA-SE adjuvant) [45-amino acid immunogen fragment]” was run?
Its value is “enhanced CD8 T cell response”.
